According to publication PMC4336329 (PLoS ONE, 2015):
In all, about 310,000 compounds went through this assay and about 14,000 (4.5%) showed an effect of 50% or more. Effects have a minus sign here. The list shows a part of the results.

target: human ether-à-go-go-related gene (hERG) potassium channel (human, UniProt Q12809); assay: primary screen, population patch clamp on CHO cells stably expressing hERG
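Further: peak tail current of the secondary pulse compared with the same well before compound.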

Chain of human ether-à-go-go-related gene (hERG) potassium channel (Q12809 whole entry, looked up): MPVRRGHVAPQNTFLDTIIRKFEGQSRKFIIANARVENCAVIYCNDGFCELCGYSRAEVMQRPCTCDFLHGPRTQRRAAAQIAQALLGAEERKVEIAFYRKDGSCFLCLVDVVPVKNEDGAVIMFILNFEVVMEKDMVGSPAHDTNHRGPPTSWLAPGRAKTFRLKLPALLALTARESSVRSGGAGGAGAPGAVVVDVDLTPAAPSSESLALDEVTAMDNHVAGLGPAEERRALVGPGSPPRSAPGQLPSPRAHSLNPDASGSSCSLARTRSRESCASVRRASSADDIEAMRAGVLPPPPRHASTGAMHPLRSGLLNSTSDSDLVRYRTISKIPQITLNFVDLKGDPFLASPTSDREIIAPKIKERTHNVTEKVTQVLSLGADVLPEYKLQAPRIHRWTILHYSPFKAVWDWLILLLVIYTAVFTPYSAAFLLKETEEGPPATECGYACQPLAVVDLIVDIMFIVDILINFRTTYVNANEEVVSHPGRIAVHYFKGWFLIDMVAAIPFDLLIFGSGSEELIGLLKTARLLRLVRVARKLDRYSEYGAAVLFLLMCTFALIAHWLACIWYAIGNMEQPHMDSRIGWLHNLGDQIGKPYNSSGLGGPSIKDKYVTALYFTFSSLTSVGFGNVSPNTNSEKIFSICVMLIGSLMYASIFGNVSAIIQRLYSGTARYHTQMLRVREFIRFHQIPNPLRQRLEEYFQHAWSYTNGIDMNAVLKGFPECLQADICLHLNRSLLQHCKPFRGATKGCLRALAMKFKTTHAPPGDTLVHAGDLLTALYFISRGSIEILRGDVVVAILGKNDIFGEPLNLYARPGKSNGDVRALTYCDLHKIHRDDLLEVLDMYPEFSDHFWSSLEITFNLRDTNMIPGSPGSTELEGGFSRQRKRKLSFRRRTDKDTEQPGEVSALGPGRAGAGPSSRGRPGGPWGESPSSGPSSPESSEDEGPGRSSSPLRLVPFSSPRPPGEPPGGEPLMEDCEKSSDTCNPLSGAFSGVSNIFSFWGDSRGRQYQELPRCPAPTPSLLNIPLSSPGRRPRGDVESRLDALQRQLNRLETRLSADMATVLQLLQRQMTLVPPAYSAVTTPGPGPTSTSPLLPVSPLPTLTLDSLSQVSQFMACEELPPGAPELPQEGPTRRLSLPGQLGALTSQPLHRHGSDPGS

| SMILES | hERG current change (%, negative = inhibition) at 10uM |
| --- | --- |
| Cc1cccc(NC(=O)c2ccccc2O)c1C | -7.72% |
| COc1ccccc1OP(=O)(O)Oc1ccccc1OC | 26.9% |
| O=C(/C=C/c1cccc(Br)c1)NC1CCN(Cc2ccccc2)CC1 | -71.1% |
| C=CCNc1nc2ccccc2nc1NS(=O)(=O)c1ccc(Cl)cc1 | 5.94% |
| COc1ccc(CCNC2=NCC(C)S2)cc1 (centres unmarked) | -4.98% |
| c1ccc(C2CC(c3cccs3)Nc3nnnn32)cc1 (centres unmarked) | 10.3% |
| CC(C)(C)NC(=O)C(c1cccs1)N(CC1CCCO1)C(=O)c1ccc(-c2ccccc2)[nH]1 (centres unmarked) | 24% |
| CCOP(=O)(c1ccccc1)C(O)c1ccccc1 (centres unmarked) | 21.7% |
| COc1cc(NC(=O)CSc2nc(=O)n(CCCN3CCOCC3)c3c2CCC3)cc(OC)c1 | -34.9% |
| CCC(=O)Nc1sc2c(c1C(=O)N(C)C)CCCCC2 | 16.8% |
| CC1Cc2nc(SCC(=O)NCc3ccco3)n(Cc3ccccc3)c(=O)c2S1 (centres unmarked) | -36.9% |
| O=C(CCCn1c(=S)[nH]c2ccccc2c1=O)NCCSCc1ccccc1 | 6.73% |
| CC1CN(S(=O)(=O)c2cccc(C(F)(F)F)c2)CN1C(=O)N1CCOCC1 (centres unmarked) | 5.21% |
| CC(=O)Nc1ccc(OCC(O)Cn2nc(C)nc2C)cc1 (centres unmarked) | 16.5% |
| Cc1cc(=O)oc2cc(OCC(=O)OCC(=O)N(CCC#N)c3ccccc3)ccc12 | 6.04% |
| CCO/N=C(/c1nonc1N)N1CCN(c2ccc([N+](=O)[O-])cc2)CC1 | 2% |
| Cc1c(C(=O)N(C)C2CCCCC2)sc2ncnc(N3CCN(c4ccccc4)CC3)c12 | -29.3% |
| COC(=O)c1cc(NC(=O)Cn2c(=O)cnc3ccccc32)cc(C(=O)OC)c1 | 9.97% |
| CC(C)(C)c1ccc(-c2n[nH]c(=S)n2Cc2ccccc2)cc1 | 8.37% |
| O=C(O)C1CCN(C(=O)c2ccccc2Cl)CC1 | -0.656% |
| O=C(Nc1ccc(S(=O)(=O)NCCc2ccccc2)cc1)c1ccncc1 | -10.3% |
| Cc1nc(-c2ccccn2)nc(SCC(=O)c2ccc(F)cc2)c1Cl | -6.36% |
| C=CCn1c(-c2ccccc2)ccc(C#N)c1=O | -7.16% |

| SMILES | hERG current change (%, negative = inhibition) at 10uM |
| --- | --- |
| Cc1cc2c(sc3c(C)ccc(C)c32)c(C)n1.Cl | 3.48% |
| NC(=O)C1CCN(Cc2nc3cc(Cl)ccc3c(=O)[nH]2)CC1 | 5.22% |
| OCC1CCCN(C(=S)Nc2ccc(Nc3ccccc3)cc2)C1 (centres unmarked) | 1.17% |
| Cc1ccccc1C(=O)NCC(c1ccco1)N1CCc2ccccc2C1 (centres unmarked) | -22.7% |
| CCn1c(=O)n(CC(=O)Nc2cc(OC)c(OC)c(OC)c2)c(=O)c2ccccc21 | -8.9% |
| Cc1ccc(/C=C2\SC(=S)N(C3CCS(=O)(=O)C3)C2=O)cc1 (centres unmarked) | 0.453% |
| Cc1ccc(C(=O)NS(=O)(=O)c2ccccc2)cc1 | 18.2% |
| O=C(COc1ccccc1)N1CCN(CCN2C(=O)c3cccc4cccc(c34)C2=O)CC1 | -8.43% |
| COc1cc(C(=O)OCc2cccc(S(=O)(=O)N3CCOCC3)c2)ccc1OCC(C)C | 11.8% |
| COc1ccc(CC(=O)O)cc1O | 9.5% |
| CCCCCc1nnc(NC(=O)C2=COCCO2)s1 | -8.55% |
| COc1ccc(OCC(=O)N/N=C(/C)Cc2ccccc2)cc1 | -2.86% |
| CC(=O)Nc1ccccc1C(=O)C(=O)Nc1ccc(C)c(C)c1 | 21% |
| CCN(Cc1ccccc1)C(=O)c1ccc(CS(=O)c2ccccc2C)o1 (centres unmarked) | -43.9% |
| O=C(O)CC1(CC(=O)NCc2ccc(Cl)cc2)CCCCC1 | 8.75% |
| O=C(O)[C@H](Cc1ccccc1)N1C(=O)c2c(Cl)c(Cl)c(Cl)c(Cl)c2C1=O | 2.13% |
| COC(=O)c1c(NC(=O)/C=C/c2ccco2)sc2c1CCC2 | 17.6% |
| CCN(C(=O)COc1ccccc1[N+](=O)[O-])C1CCS(=O)(=O)C1 (centres unmarked) | 0.104% |
| CCOC(=O)CSc1nc2sccc2c(=O)[nH]1 | 5.88% |
| Cc1sc(NC(=O)C2CCCO2)c(C(N)=O)c1C (centres unmarked) | 15.4% |
| O=c1[nH]c(CN2CCN(c3ccccc3)CC2)nc2ccccc12 | 1.55% |
| COc1cc(C)ccc1OCC(=O)OCC(=O)c1cc(C)n(CC2CCCO2)c1C (centres unmarked) | -21.7% |
| O=C1CCCN2N=C(SCC(=O)Nc3ccc([N+](=O)[O-])cc3)SC2=N1 | -5.23% |

| SMILES | hERG current change (%, negative = inhibition) at 10uM |
| --- | --- |
| COc1ccc(Cl)cc1NC(=O)CSc1nc(NS(=O)(=O)c2ccc(C)cc2)cc(=O)[nH]1 | 4.52% |
| COc1ccc(C)cc1NS(=O)(=O)c1ccc(NC(=O)CN(c2cc([N+](=O)[O-])ccc2C)S(C)(=O)=O)cc1 | 0.466% |
| COc1ccc(C2C(C(=O)Nc3ccc(OC)c(OC)c3)c3ccccc3C(=O)N2C)cc1 (centres unmarked) | 27.7% |
| Cn1c(C(=O)OCC(=O)NCC2CCCO2)cc2sccc21 (centres unmarked) | 0.355% |
| Cc1ccc(Cn2nnc3c(=O)n(Cc4cc(C)ccc4C)cnc32)cc1 | 10.7% |
| O=S(NC1CCCCC1)C12CC3CC(CC(C3)C1)C2 (centres unmarked) | -12.4% |
| O=C(CCCC(=O)N1CCN(c2ccccc2F)CC1)N1CCN(c2ccccc2F)CC1 | -25.2% |
| CCN(CC)C(=O)C1=C(C)NC(=S)NC1c1ccc(C)s1 (centres unmarked) | -6.31% |
| O=S(=O)(NCc1ccccc1)c1cccc2nsnc12 | 5.77% |
| NC1=NC[C@@H](Cc2ccc(O)cc2)N1CC1CCCCC1 | 19.2% |
| CCOC(=O)c1ccc(NC(=O)COc2ccccc2CNC2CCCC2)cc1.Cl | -78.1% |
| CCC(C(=O)NC1C(=O)N2C(C(=O)O)=C(CSc3nnc(C)s3)CSC12)c1ccccc1 (centres unmarked) | 15.4% |
| COc1ccc(N/C(N)=N/c2nc(C)cc(C)n2)c(OC)c1 | -26.4% |
| CSCC[C@H](NC(=O)c1cccs1)C(=O)N1CCC2(CC1)NCCc1[nH]cnc12 | 10.2% |
| COc1ccccc1CN1CCCC(C(=O)N2CCCCC2)C1.O=C(O)C(=O)O (centres unmarked) | 10.6% |
| CC(=O)Nc1ccc2nc(NC(=O)CCc3ccccc3)sc2c1 | 14.3% |
| Cc1c(O)c(CN2CCCC2)cc2c1oc(=O)c1ccccc12 | -29.9% |
| Cn1cnnc1SCC(=O)Nc1cc(S(=O)(=O)N2CCCCC2)ccc1Cl | -0.0108% |
| Cc1ccc(NC(=S)NNC(=O)c2ccco2)cc1 | 7.98% |
| CC(C)(C)C(=O)Oc1ccc2cc(-c3ccc4ccccc4n3)c(=O)oc2c1 | -10.5% |
| CNC(=O)C1C(=S)NC(N)=C(C#N)C1c1ccccc1 (centres unmarked) | 8.83% |
| Cc1ccc(S(=O)(=O)NCc2nc3nc(C)cc(C)n3n2)c(C)c1 | -4.75% |
| NC(=O)CN1C(=O)/C(=c2\sc3nc(=O)c(Cc4ccccc4)nn3c2=O)c2ccccc21 | 10.1% |

| SMILES | hERG current change (%, negative = inhibition) at 10uM |
| --- | --- |
| N/C(=N\OC(=O)CCCc1ccccc1)c1ccccn1 | 20.1% |
| CC(C)C(C(=O)NC(C)(C)C)N1C(=O)c2ccccc2C1=O (centres unmarked) | 2.52% |
| CCOC(=O)c1ccc(NC(=O)NC2CC3CCC(C2)N3Cc2nnnn2Cc2ccco2)cc1 (centres unmarked) | -21.1% |
| NC(=O)c1cc2ccccc2o/c1=N/NC(=O)c1cccs1 | -48.3% |
| O=C(O)c1ccc(OCc2ccc(C(=O)O)o2)cc1 | 22.5% |
| COc1ccccc1CC(=O)N1CCC(n2nccc2NC(=O)C2CCOC2)CC1 (centres unmarked) | 4.83% |
| CCOC(=O)C1(CCc2ccccc2)CCN(C(C)CSC)CC1 (centres unmarked) | -66.6% |
| Cc1ccc(N2C(=O)C(Cl)=C(N3CCN(C)CC3)C2=O)c(C)c1 | 3.06% |
| COc1ccc(C(=O)/C=C/c2ccc(OC3CSC3)cc2)cc1 | -1.08% |
| CC1CCN(c2ccc(NC(=S)NC(=O)c3ccco3)cc2)CC1 | 1.81% |
| O=C(CSc1nc(-c2ccccc2Cl)ns1)c1ccc(Cl)cc1 | 19.2% |
| NC(=O)C1CCN(C(=O)/C=C/c2ccccc2[N+](=O)[O-])CC1 | -5.54% |
| O=C(O)CCNc1nc(-c2ccccc2)c2cc(Br)ccc2n1 | 4.59% |
| CCCCn1c(N)c(C(=O)OCC2CCCO2)c2nc3ccccc3nc21 (centres unmarked) | -49.1% |
| CC(C)=CC(=O)Nc1nnc(-c2ccccc2C)s1 | 14.1% |
| O=C(Cn1ccc2ccccc2c1=O)NCCC(=O)Nc1cccc(Cl)c1 | 18.6% |
| COc1cccc(CNC(=O)CCS(=O)(=O)c2cccc3nsnc23)c1 | 3.14% |
| c1ccc(CCC2CCCCN2Cc2nc(C3CC3)no2)cc1 (centres unmarked) | -16.8% |
| CCN(CC)S(=O)(=O)c1ccc(NC(=O)c2c(-c3ccccc3)noc2C)cc1 | -15.7% |
| CCC1(C(=O)c2ccccc2)C(c2ccc([N+](=O)[O-])cc2)C1(C(=O)OC)C(=O)OC (centres unmarked) | -7.87% |
